# In the supplement of paper PMC10037445:
# The full ranking holds about 2,900 compounds; the median of “NF-kB SEAP reporter activity, fold change vs agonist alone” is about 0.99, and the highest 2% start at about 2.6. The list shows a part of the results.
# Assays:
# RAW-Dual [1] = assay: NF-kB SEAP reporter activity, fold change vs agonist alone; cytotoxicity flag (confluency mask): not cytotoxic; higher = enhanced NF-kB activity
# In short: (§1)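 Cytotoxic wells were those whose IncuCyte confluency was below 70% of agonist controls in both mask sets. The cells were RAW-Dual macrophages at 50,000 cells/well in DMEM on 384-well plates, dosed with 50 nL of library stock by pin tool, stimulated with a PRR agonist 1 h later, and kept at 37 °C, 5% CO2 for 20 hours. IRF and NF-κB reporter activity, as fold change over agonist-alone wells, came from supernatant read by QuantiLuc luminescence and QuantiBlue absorbance, respectively.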
# RAW-Dual [2] = assay: NF-kB SEAP reporter activity, fold change vs agonist alone; higher = enhanced NF-kB activity; conditions: cytotoxicity flag (confluency mask): not cytotoxic
# In short: as §1
# [3] = agonist: ODN 1826 (TLR9) 0.5 ug/mL
# [4] = agonist: Pam2CSK4 (TLR2/6) 0.1 ug/mL
# [5] = agonist: Pam3CSK4 (TLR2/1) 0.1 ug/mL
# [6] = library stock concentration (final ~1000-fold dilution): 10 mM, agonist: Imiquimod (TLR7) […]
# [7] = library stock concentration (final ~1000-fold dilution): 10 mM, agonist: MPLA (TLR4) […]
smiles,measurement,setting,value
C=CCCC(=O)O (library stock concentration (final ~1000-fold dilution): 10 mM),NF-kB SEAP reporter activity,RAW-Dual [1]; agonist: LPS (TLR4) 0.1 ug/mL,0.914
same,NF-kB SEAP reporter activity,RAW-Dual [1]; [3],0.921
same,NF-kB SEAP reporter activity,RAW-Dual [1]; [4],1.05
same,NF-kB SEAP reporter activity,RAW-Dual [1]; [5],0.892
COC(=O)NC(C(=O)N1CCCC1c1ncc(-c2ccc3c(c2)OC(c2ccccc2)n2c-3cc3cc(-c4cnc(C5CCCN5C(=O)C(NC(=O)OC)C(C)C)[nH]4)ccc32)[nH]1)C(C)C (stereo unspecified) (library stock concentration (final ~1000-fold dilution): 10 mM),NF-kB SEAP reporter activity,RAW-Dual [1]; agonist: LPS (TLR4) 0.1 ug/mL,1.44
same,NF-kB SEAP reporter activity,RAW-Dual [1]; [3],0.946
same,NF-kB SEAP reporter activity,RAW-Dual [1]; [4],0.849
same,NF-kB SEAP reporter activity,RAW-Dual [1]; [5],0.671
COC(=O)NC(C(=O)N1CCCC1c1ncc(-c2ccc3c(c2)OC(c2ccccc2)n2c-3cc3cc(-c4cnc(C5CCCN5C(=O)C(NC(=O)OC)C(C)C)[nH]4)ccc32)[nH]1)C(C)C (stereo unspecified),NF-kB SEAP reporter activity,RAW-Dual [2]; [6],1.03
same,NF-kB SEAP reporter activity,RAW-Dual [2]; [7],0.99
COc1ncc(-c2ccc3nccc(-c4ccnnc4)c3c2)cc1NS(=O)(=O)c1ccc(F)cc1F,NF-kB SEAP reporter activity,RAW-Dual [2]; [6],0.912
same,NF-kB SEAP reporter activity,RAW-Dual [2]; [7],0.957
COc1ncc(-c2ccc3nccc(-c4ccnnc4)c3c2)cc1NS(=O)(=O)c1ccc(F)cc1F (library stock concentration (final ~1000-fold dilution): 10 mM),NF-kB SEAP reporter activity,RAW-Dual [1]; agonist: LPS (TLR4) 0.1 ug/mL,6.18
same,NF-kB SEAP reporter activity,RAW-Dual [1]; [3],0.959
same,NF-kB SEAP reporter activity,RAW-Dual [1]; [4],2.26
same,NF-kB SEAP reporter activity,RAW-Dual [1]; [5],0.801
CN1CCCN=C1/C=C/c1cccc(O)c1.O=C(O)c1cc2ccccc2c(Cc2c(O)c(C(=O)O)cc3ccccc23)c1O,NF-kB SEAP reporter activity,RAW-Dual [2]; [6],0.944
same,NF-kB SEAP reporter activity,RAW-Dual [2]; [7],1.12
CN1CCCN=C1/C=C/c1cccc(O)c1.O=C(O)c1cc2ccccc2c(Cc2c(O)c(C(=O)O)cc3ccccc23)c1O (library stock concentration (final ~1000-fold dilution): 10 mM),NF-kB SEAP reporter activity,RAW-Dual [1]; agonist: LPS (TLR4) 0.1 ug/mL,0.973
same,NF-kB SEAP reporter activity,RAW-Dual [1]; [3],0.993
same,NF-kB SEAP reporter activity,RAW-Dual [1]; [4],1.01
same,NF-kB SEAP reporter activity,RAW-Dual [1]; [5],0.594
CN(C)CCN(Cc1ccccc1)c1ccccn1.Cl,NF-kB SEAP reporter activity,"RAW-Dual [2]; library stock concentration (final ~1000-fold dilution): 10 mM water, agonist: Imiquimod (TLR7) […]",0.979
same,NF-kB SEAP reporter activity,"RAW-Dual [2]; library stock concentration (final ~1000-fold dilution): 10 mM water, agonist: MPLA (TLR4) […]",1.09
CN(C)CCN(Cc1ccccc1)c1ccccn1.Cl (library stock concentration (final ~1000-fold dilution): 10 mM water),NF-kB SEAP reporter activity,RAW-Dual [1]; agonist: LPS (TLR4) 0.1 ug/mL,0.984
same,NF-kB SEAP reporter activity,RAW-Dual [1]; [3],0.872
same,NF-kB SEAP reporter activity,RAW-Dual [1]; [4],1.09
same,NF-kB SEAP reporter activity,RAW-Dual [1]; [5],1.1
CC1COCCN1c1cc(C2(S(C)(=O)=O)CC2)nc(-c2cccc3[nH]ccc23)n1 (stereo unspecified) (library stock concentration (final ~1000-fold dilution): 10 mM),NF-kB SEAP reporter activity,RAW-Dual [1]; agonist: LPS (TLR4) 0.1 ug/mL,1.39
same,NF-kB SEAP reporter activity,RAW-Dual [1]; [3],0.532
same,NF-kB SEAP reporter activity,RAW-Dual [1]; [4],0.749
same,NF-kB SEAP reporter activity,RAW-Dual [1]; [5],0.964
CC1COCCN1c1cc(C2(S(C)(=O)=O)CC2)nc(-c2cccc3[nH]ccc23)n1 (stereo unspecified),NF-kB SEAP reporter activity,RAW-Dual [2]; [6],1.81
same,NF-kB SEAP reporter activity,RAW-Dual [2]; [7],1.65
Brc1c(Br)c(Br)c2[nH]nnc2c1Br,NF-kB SEAP reporter activity,RAW-Dual [2]; [7],1.11
Brc1c(Br)c(Br)c2[nH]nnc2c1Br (library stock concentration (final ~1000-fold dilution): 10 mM),NF-kB SEAP reporter activity,RAW-Dual [1]; agonist: LPS (TLR4) 0.1 ug/mL,1.19
same,NF-kB SEAP reporter activity,RAW-Dual [1]; [3],0.821
same,NF-kB SEAP reporter activity,RAW-Dual [1]; [4],1.1
same,NF-kB SEAP reporter activity,RAW-Dual [1]; [5],1.02
O=C1[C@H](CC[C@H](O)c2ccc(F)cc2)[C@@H](c2ccc(O)cc2)N1c1ccc(F)cc1,NF-kB SEAP reporter activity,RAW-Dual [2]; [6],0.261
same,NF-kB SEAP reporter activity,RAW-Dual [2]; [7],0.893
